This note sets out measurements from FireProtDB.

The conditions of this series: Aspergillus oryzae (strain ATCC 42149 / RIB 40); pH 7; Thermal; Absorbance; Sodium cacodylate 10 mM; reversible: yes; whole UniProt chain shown.

Certain results were filed several times, with different values. The list is limited to them. The source may hold further records. The values listed for one entry are repeats across runs, samples, wells, individuals or studies. Records carry a tag for their origin. Letters count within one entry. Counts like (3×) say how often a value occurs here.

B1: Guanyl-specific ribonuclease T1 wild type, P00651 (protein)
chain: MMYSKLLTLTTLLLPTALALPSLVERACDYTCGSNCYSSSDVSTAQAAGYQLHEDGETVGSNSYPHKYNNYEGFDFSVSSPYYEWPILSSGDVYSGGSPGADRVVFNENNQLAGVITHTGASGNNFVECT
In the case of B1, the Tm was 57.6 °C [study A] and 57.9 °C, 58 °C (2×), 58.6 °C [study B].

As a reminder, the Tm is the temperature at the midpoint of the melting transition.
